# PubChem BioAssay AID1345083 (National Center for Advancing Translational Sciences (NCATS), 2018)
# Screen size: about 94,000 compounds; about 6,200 (6.6%) were called active. The shares of active, inactive and inconclusive entries below differ from those in the screen. The call rests on the fitted dose curve; in most records, active means well fitted inhibition curve with a large enough effect; inconclusive means small, poorly fitted or top-dose-only effect; inactive means flat fitted curve, though single readings scatter. Potencies beside an inconclusive call are fits to weak or partial responses and may not hold up.
# Experiment: Cytotoxic Profiling in HEK 293 Cell Line of Diverse Libraries Using Quantitative High-Throughput Screening; further: nearly all actives have a fitted effect of over 60% in size
# Conditions: HEK 293 viability, ATP luminescence (CellTiter-Glo), 48-72 h; series mostly up to 115 µM
# Summary of the method: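 Pintool-delivered compounds were incubated with HEK 293 cells (250 cells/well) at 37 degree Celsius for 48 or 72 hr. ATP-dependent luminescence (CellTiter-Glo) then reported remaining viable cells.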
# Potency means the concentration at half of the fitted maximal effect; tags describe the fitted curve by direction and shape.
row,Compound,Potency
1,CCCc1noc(-c2cccn3c(CNC(=O)Cc4ccccc4Cl)nnc23)n1,"inconclusive: 89.1 µM [inhibitor, single point]"
2,CCCC(O)CN1CCC(=O)N(CCOC)Cc2cc(F)ccc21 (centres undefined),"inconclusive: 10 µM [inhibitor, partial curve, poor fit]"
3,CCc1cccc2c(C(CC(=O)NCc3ccco3)c3cccc([N+](=O)[O-])c3)c[nH]c12 (centres undefined),active: 44.7 µM
4,CCN1C(=O)Cc2cc(C(=O)Nc3ccc(F)cc3)ccc21,"inconclusive: 56.2 µM [inhibitor, partial curve, poor fit]"
5,CC(=O)N1CCN(Cc2ccc(-c3cnc4c(OCc5ccccc5)nccn34)cc2)CC1,active: 39.8 µM
6,CC(C)(C)CC(=O)Nc1ccc2c(N3CCOCC3)ncnc2c1,inactive
7,O=C(NCc1ccncc1)c1cc2n(n1)CC(c1ccc(Br)cc1)OC2 (centres undefined),"inconclusive: 39.8 µM [inhibitor, partial curve, poor fit]"
8,COc1ccc(N2C(=O)CSC23CCN(C(=O)Nc2ccc(C)cc2)CC3)cc1,inactive
9,CCC(CC)C(=O)N1CCC(Oc2nccnc2N(C)C)C1 (centres undefined),"inconclusive: 100 µM [inhibitor, single point]"
10,O=C(Nc1cnc(-c2ccccc2)nc1)c1ccccc1C(F)(F)F,"inconclusive: 39.8 µM [inhibitor, partial curve, poor fit]"
11,O=C(NC1CCCN(Cc2ccc(-c3cncnc3)cc2)C1)c1ccccc1 (centres undefined),"inconclusive: 50.1 µM [inhibitor, partial curve, poor fit]"
12,Cn1cc(C(=O)NCC2CN(Cc3ccccc3)CC23CN(c2ccccc2)C3)cn1 (centres undefined),"inconclusive: 100 µM [inhibitor, partial curve]"
13,CCCOCC(=O)N1CCc2onc(-c3ccc(C(F)(F)F)cc3)c2C1,"inconclusive: 50.1 µM [inhibitor, partial curve, poor fit]"
14,O=C1CCN(C(=O)[C@@H](Cc2ccccc2)NS(=O)(=O)c2ccc3c(c2)CCC3)CCOCCN1,inactive
15,Cc1cccc(-n2cc(CN3CCN(c4cc(N)nc(N)n4)CC3)cn2)c1,"inconclusive: 79.4 µM [inhibitor, partial curve, poor fit]"
16,Cc1ccc(S(=O)(=O)NC[C@H]2OC[C@@H](NC3CCNCC3)[C@@H]2O)cc1,inactive
17,O=C(CNC(=O)c1ccc(-c2cnc3ccccc3c2)cc1)NCc1ccc2c(c1)OCO2,active: 50.1 µM
18,COc1ccc(F)cc1-c1ccc(CN2CCCCC2C(=O)NCc2ccccn2)cc1 (centres undefined),active: 25.1 µM
19,Cn1ncc2c(C(=O)NC3CCCC3)cc(-c3ccc(C(F)(F)F)cc3)nc21,"inconclusive: 44.7 µM [inhibitor, partial curve, poor fit]"
